# In all, about 1,400 sequences were measured (“thermal melting temperature (Tm) of peptide-HLA complex”: median about 60, lowest 2% from about 45 on). Some of the results follow.
# Target: HLA-B*07:02
# Experiment: thermal melting temperature (Tm) of peptide-HLA complex; higher = more thermostable pHLA complex
# Conditions: C1R-B*07:02
# 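Note: cell lysates heated 10 min at 37–73 °C, remaining pHLA pulled down with pan-class I antibody, peptides quantified by DIA-MS versus 37 °C, Tm where half the complex is lost.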
row,Sequence,thermal melting temperature [°C]
1,IPLLGKSSL,61.9
2,LPSRKLVAL,61.6
3,SPQGPGALF,62.5
4,RPQIHGYDL,59.9
5,RPTLLWSL,63.4
6,LPSDLRTISL,62.7
7,LPQYRLISI,61.3
8,QPRLMEPIYL,57.4
9,APSNPPAHL,53
10,LIRPVSASF,61
11,SPRSSDLVKL,57.6
12,RPAQTTVLI,52.9
13,QPAPAPLLF,59.9
14,GPLPRAAAL,59.1
15,APSAARELSL,62.9
16,FPRAPSTSDSV,57.1
17,APYSRPKQL,61.5
18,APSEYRYTLL,64.3

row,Sequence,thermal melting temperature [°C]
1,KPQPHSGSVL,56
2,GPGLSRTGVEL,55.7
3,YLRPPNTSL,60.1
4,QPFFQKRSEL,60
5,QPSSFRSVIGL,61.8
6,GPRAPSPTKPL,57.7
7,NPRLNILDTL,51.2
8,APSGSLAVPL,63.5
9,LPTSPGPAL,40.6
10,QPNPLPLRL,61.2
11,NPDAALRAL,54.5
12,LPRGMQPTEF,60.8
13,LPRKPSVPW,59.5
14,FPAFPRAQV,62.3
15,LPQPPRDVL,58.6
16,KPFDQTTISL,61.3
17,HPNVLPVL,58.8
18,SPVKSTTSI,59.1

# — the supplement of paper PMC7726561
